From ChEMBL document CHEMBL4888484, “Replenishing the malaria drug discovery pipeline: Screening and hit evaluation of the MMV Hit Generation Library 1 (HGL1) against asexual blood stage Plasmodium falciparum ,using a nano luciferase reporter read-out” (2022)
Out of some 150,000 compounds screened, about 540 (0.36%) showed an effect of 50% or more. This is one part of the list.

What follows are compounds tested on Plasmodium falciparum (assay: Primary screen in NF54 nanoGlo assay, in single point, at 2uM, 72h; a lower Z score goes with more inhibition). Conditions: timepoint 72 hour.
Assay type: functional, Erythrocyte
With `COc1ccnc(CN2CCC(CNC(=O)c3cc(C(C)C)no3)CC2)c1OC` the “% Inhibition” value was -3% and the Z score was 0.62.
With `CCc1noc(NC(=O)Cc2c(C)noc2C)c1C` the “% Inhibition” value was -83% and the Z score was 15.97.
With `CC(C)c1nnc2ccc(NC(=O)[C@@H]3COCCO3)cn12` the “% Inhibition” value was -6% and the Z score was 0.91.
For `Cc1cc(NC(=O)COc2ccc3c(c2)CCC3=O)n(C)n1`, the “% Inhibition” value was -5% and the Z score was 0.61.
With `O=C(NOCc1ccccc1)N1CCN(c2ccccc2O)CC1` the “% Inhibition” value was -1% and the Z score was 0.13.
With `COc1ccc(NC(=O)Cn2c3cc(=O)n(N4CCN(C)CC4)c(C)c3c(=O)n2-c2nc3ccccc3s2)c(OC)c1` the “% Inhibition” value was 1% and the Z score was -0.15.
For `COc1nc(N2CCC3(CC2)CNC(=O)O3)ncc1F`, the “% Inhibition” value was 3% and the Z score was -0.48.
In the case of `COc1cc(NC(=O)N[C@H]2CCCn3ncnc32)n(C)n1`, the “% Inhibition” value is reported as 4% and the Z score is reported as -0.58.
With `Cc1ncn(C)c1C(=O)N(C)Cc1ccc(CN(C)C)cc1` the “% Inhibition” value was -15% and the Z score was 1.56.
With `COc1ccc(CC(=O)Nc2ccc(N3CCNC(=O)C3)nc2)cc1` the “% Inhibition” value was -6% and the Z score was 0.57.
`Cc1nccc(O[C@H]2CCCN(C(=O)C3CCCC3)C2)n1` was tested, and the “% Inhibition” value was 3% and the Z score was -0.35.
For `CCC(NS(=O)(=O)c1c(C)cccc1Cl)[C@H]1C[C@H](O)C1` (stereo partly specified), the “% Inhibition” value was -5% and the Z score was 0.57.
With `CC1CCCCC1NC(=O)c1ccc(CN2C(=O)CCn3nccc32)cc1` (stereo unspecified) the “% Inhibition” value was 10% and the Z score was -1.15.
With `COc1cccc(C(=O)N2CC3(C[C@H](N(C)Cc4ccccc4)CO3)C2)c1OC` the “% Inhibition” value was -8% and the Z score was 1.18.
`Cc1cc(=O)c(CO)nn1CCOCC1CC1` was tested, and the “% Inhibition” value was -1% and the Z score was 0.21.
With `Cc1ccc(N(C)C(=O)c2ncccc2O)cc1N(C)C` the “% Inhibition” value was 0% and the Z score was -0.03.
`Cc1ccc(S(=O)(=O)N2CCCN([C@H]3CCOC3)CC2)s1` was tested, and the “% Inhibition” value was -16% and the Z score was 2.74.
With `Cc1cccc(Cl)c1S(=O)(=O)N(C)[C@@H](C)CC(N)=O` the “% Inhibition” value was -14% and the Z score was 1.83.
With `CCN(CC)Cc1ccc2c(c1)CN(C(=O)c1sccc1C)CCO2` the “% Inhibition” value was -6% and the Z score was 0.59.
With `OC[C@H]1CCCN(c2ccc(C(F)(F)F)cn2)[C@H]1CO` the “% Inhibition” value was 29% and the Z score was -3.28.
With `Clc1cccc2[nH]c(-c3nc([C@H]4CCOC4)no3)cc12` the “% Inhibition” value was -5% and the Z score was 0.83.
`Cc1cc2[nH]cc(C(=O)N3CC[C@@]4(CCCN(CC5CC5)C4=O)C3)c(=O)n2n1` was tested, and the “% Inhibition” value was 2% and the Z score was -0.19.
With `CCC1CN(C(C)=O)CCC1NCc1cc2cc(F)ccc2o1` (stereo unspecified) the “% Inhibition” value was -8% and the Z score was 0.97.
In the case of `NC(=O)c1ccccc1OCC#CCNC(=O)Cc1ccc(F)cc1`, the “% Inhibition” value is reported as 8% and the Z score is reported as -1.02.
`CS(=O)(=O)c1ccc(Cl)c(C(=O)N2CCC(c3nc4ccccc4o3)CC2)c1` was tested, and the “% Inhibition” value was 14% and the Z score was -1.62.
With `Cc1ccc(S(=O)(=O)N2C[C@@H](C(=O)Nc3ccccc3C(C)C)Oc3ccc(C)cc32)cc1` the “% Inhibition” value was -6% and the Z score was 0.82.
With `CCCCCC(C)NC(=O)N1CCCCC1C` (stereo unspecified) the “% Inhibition” value was 2% and the Z score was -0.28.
In the case of `COC1(C)CN(c2nc(C)c3cn[nH]c3n2)C1`, the “% Inhibition” value is reported as -10% and the Z score is reported as 1.55.
With `Cc1ccccc1NC(=O)[C@@H]1CCCN1C(=O)OCc1ccccc1` the “% Inhibition” value was 29% and the Z score was -3.3.
With `CCN1CCC(NCc2ccn(C)n2)C1c1ccc(Cl)c(F)c1` (stereo unspecified) the “% Inhibition” value was -6% and the Z score was 0.71.
For `Cc1c(-c2ccccc2)noc1NC(=O)CN1CCCCCC1`, the “% Inhibition” value was -2% and the Z score was 0.4.
With `CC(C)c1noc(Cc2ccc(NC(=O)C3CC=CC3)cc2)n1` the “% Inhibition” value was -4% and the Z score was 0.48.
`CC(=O)Nc1ccc(C)cc1S(=O)(=O)NCc1nn(Cc2ccccc2)c2ccccc12` was tested, and the “% Inhibition” value was -3% and the Z score was 0.3.
In the case of `CC(C)Cn1cc(C(=O)OC2CCN(c3ccncn3)CC2)cn1`, the “% Inhibition” value is reported as 28% and the Z score is reported as -3.11.
For `Cc1ccc(N2CCC(NC(=O)CC(C)c3c(C)noc3C)C2)cc1` (stereo unspecified), the “% Inhibition” value was 16% and the Z score was -2.05.
`CCOC(=O)C(C)NC(C)c1cc(F)c(F)c(F)c1` (stereo unspecified) was tested, and the “% Inhibition” value was -2% and the Z score was 0.24.
In the case of `CN(C)CCCNC(=O)C1CCN(c2nc3ccc(-c4cccnc4)nc3s2)CC1`, the “% Inhibition” value is reported as 10% and the Z score is reported as -1.09.
For `Cn1nc(-c2cccnc2)cc1CNC(=O)C1CCCC1`, the “% Inhibition” value was 12% and the Z score was -1.47.
In the case of `COc1cc2c(cc1OC)[C@H](C1CC1)N(Cc1ccnn1C)CC2`, the “% Inhibition” value is reported as -2% and the Z score is reported as 0.2.
For `O=C(NCCCN1CCCC1=O)NCC1(c2ccccc2)CC1`, the “% Inhibition” value was -7% and the Z score was 1.41.
`NC(=O)CCCNC(=O)C1(Cc2cccc(Cl)c2)CCCC1` was tested, and the “% Inhibition” value was -4% and the Z score was 0.52.
In the case of `CCNC(=O)N1CCN(C(=O)c2ccnc3c2nnn3C)CC1`, the “% Inhibition” value is reported as -1% and the Z score is reported as 0.11.
For `CCCN(CC(=O)N1CCn2cccc2[C@H]1c1cccc(Oc2ccccc2)c1)C(=O)Nc1cccc(C)c1`, the “% Inhibition” value was -18% and the Z score was 1.54.
